Molecules are shown by their SMILES. Structures can show the parent of a compound that is named as a salt. ± gives the standard deviation of the averaged measurements. In all, about 1,300 compounds were measured (“normalised cell viability”: median about 1, lowest 2% from about 0.15 on). The list shows a part of the results.

This test deals with V-C8 + BRCA2 (BRCA2-proficient hamster cells). Kind of test: normalised cell viability (fraction of plate median); higher = more viable cells (less toxic). To be noted: 5 µM. A digest of the protocol: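 Cell viability was measured with a resazurin assay, normalised to the plate median (modified robust per cent of sample) and averaged over triplicate wells. Hamster V-C8 cells lacking BRCA2 and V-C8 cells with BRCA2 restored were seeded in 96-well plates. After 24 h, library drugs from 10 mM DMSO stocks were added at a final 5 μM in 100 μl medium and left for 3 days (screen 1) or 6 days (screen 2), with solvent-only wells alongside.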

In the case of `O=c1[nH]c(=O)n([C@H]2C[C@H](O)[C@@H](CO)O2)cc1I` [Idoxuridine], the normalised cell viability is, setting by setting: (treatment time: 3 days) 0.403 ± 0.013; (treatment time: 6 days) 0.392 ± 0.0092.
The matching figures for `Cc1cccc(N(C)C(=S)Oc2ccc3ccccc3c2)c1` [Tolnaftate]: 1.02 ± 0.027 and 1.04 ± 0.044.
For `CC1(C)O[C@@H]2C[C@H]3[C@@H]4C[C@H](F)C5=CC(=O)CC[C@]5(C)[C@H]4[C@@H](O)C[C@]3(C)[C@]2(C(=O)CO)O1` [Flurandrenolide] the same measures were 1.01 ± 0.13 and 1.07 ± 0.055.
As for `NNC(=O)c1ccncc1` [Isoniazid], the normalised cell viability runs as follows: (treatment time: 3 days) 1.01 ± 0.062; (treatment time: 6 days) 1.05 ± 0.043.
For `CCC[C@@H]1C[C@@H](C(=O)N[C@@H]([C@H]2O[C@H](SC)[C@H](O)[C@@H](O)[C@H]2O)[C@@H](C)O)N(C)C1` [Lincomycin hydrochloride] the same measures were 1.01 ± 0.031 and 1.11 ± 0.046.
The matching figures for `CN1CCCN=C1/C=C/c1cccs1` [Pyrantel tartrate]: 1.04 ± 0.05 and 1.03 ± 0.026.
On to `CCN(CC)CCN[C@@H](C(=O)OCCC(C)C)c1ccccc1` [Camylofine chlorhydrate], for which the normalised cell viability is, setting by setting: (treatment time: 3 days) 0.957 ± 0.014; (treatment time: 6 days) 0.998 ± 0.096.
The matching figures for `O=C(Nc1ccc([N+](=O)[O-])cc1Cl)c1cc(Cl)ccc1O` [Niclosamide]: 0.139 ± 0.0082 and 0.127 ± 0.0065.
The matching figures for `CCOc1ccc(Cc2nccc3cc(OCC)c(OCC)cc23)cc1OCC` [Ethaverine hydrochloride]: 0.834 ± 0.036 and 0.445 ± 0.019.
In the case of `CC12CC3CC(C)(C1)CC(N)(C3)C2` [Memantine Hydrochloride], the normalised cell viability worked out at 0.955 ± 0.035 (treatment time: 3 days) and 1.03 ± 0.022 (treatment time: 6 days).
Consider `O=C1c2cccc(O)c2C(=O)c2c(O)cccc21` [1,8-Dihydroxyanthraquinone], for which the normalised cell viability by setting is: (treatment time: 3 days) 0.853 ± 0.051; (treatment time: 6 days) 0.914 ± 0.076.
The matching figures for `CC(C)NNC(=O)c1ccncc1` [Iproniazide phosphate]: 0.962 ± 0.016 and 0.974 ± 0.028.
The matching figures for `CCN(CC)CCNC(=O)c1cc(Br)c(N)cc1OC` [Bromopride]: 0.948 ± 0.064 and 0.999 ± 0.061.
The matching figures for `CCCCC(=O)N(Cc1ccc(-c2ccccc2-c2nnn[nH]2)cc1)[C@H](C(=O)O)C(C)C` [Valsartan]: 0.988 ± 0.14 and 0.954 ± 0.083.
For `OC(CCN1CCCCC1)(c1ccccc1)c1ccccc1` [Pridinol methanesulfonate salt], the normalised cell viability is 0.942 ± 0.06 (treatment time: 3 days) and 0.871 ± 0.038 (treatment time: 6 days).
For `CCOC(=O)C1=C(C)NC(C)=C(C(=O)OC)C1c1cccc(Cl)c1Cl` (stereo not given) [Felodipine] the same measures were 0.718 ± 0.052 and 0.533 ± 0.066.
Consider `C[C@H](CCC(=O)O)[C@H]1CC[C@H]2[C@@H]3C(=O)C[C@@H]4CC(=O)CC[C@]4(C)[C@H]3CC(=O)[C@]12C` [Dehydrocholic acid], for which the normalised cell viability by setting is: (treatment time: 3 days) 1.15 ± 0.047; (treatment time: 6 days) 1.07 ± 0.068.
The matching figures for `O=C1c2c(O)ccc(O)c2C(=O)c2c(NCCNCCO)ccc(NCCNCCO)c21` [Mitoxantrone dihydrochloride]: 0.123 ± 0.0098 and 0.124 ± 0.0098.
The matching figures for `O=C(NC(Cc1cc(=O)[nH]c2ccccc12)C(=O)O)c1ccc(Cl)cc1` (stereo not given) [Rebamipide]: 1.25 ± 0.29 and 1.06 ± 0.047.
The matching figures for `CC(C)(C)NC[C@H](O)COc1cccc2c1CCCC2=O` [(-) -Levobunolol hydrochloride]: 1.04 ± 0.021 and 1.011 ± 0.0087.
For `C[N+](C)(C)CCOC(N)=O` [Carbachol], the normalised cell viability stood at 0.953 ± 0.043 (treatment time: 3 days) and 1.01 ± 0.036 (treatment time: 6 days).
As for `Nc1ncn(C2OC(CO)C(O)C2O)c(=O)n1` (stereo not given) [Azacytidine-5], the normalised cell viability came to 0.736 ± 0.015 (treatment time: 3 days) and 0.97 ± 0.014 (treatment time: 6 days).
The matching figures for `O=C(O)CCC(=O)c1ccc(-c2ccccc2)cc1` [Fenbufen]: 1.03 ± 0.04 and 1.03 ± 0.041.
With `CN1CCN2c3ccccc3Cc3ccccc3C2C1` (stereo not given) [Mianserine hydrochloride], the normalised cell viability reads like this: (treatment time: 3 days) 1.08 ± 0.089; (treatment time: 6 days) 1.14 ± 0.014.
Take `N[C@@H](Cc1ccc(O)c(O)c1)C(=O)O` [Levodopa]: the normalised cell viability runs as follows: (treatment time: 3 days) 0.908 ± 0.037; (treatment time: 6 days) 0.931 ± 0.051.
For `CC(=O)Oc1ccc(C(c2ccc(OC(C)=O)cc2)c2ccccn2)cc1` [Bisacodyl] the same measures were 1.07 ± 0.012 and 1 ± 0.1.
The matching figures for `CCCc1nn(C)c2c(=O)[nH]c(-c3cc(S(=O)(=O)N4CCN(C)CC4)ccc3OCC)nc12` [Sildenafil]: 1.01 ± 0.07 and 1.09 ± 0.048.
For `CCCNC(C)(C)COC(=O)c1ccccc1` [Meprylcaine hydrochloride] the same measures were 0.98 ± 0.088 and 1.03 ± 0.14.
`CC(NCCc1ccc(O)cc1)C(O)c1ccc(O)cc1` (stereo not given) [Ritodrine hydrochloride]: the normalised cell viability (treatment time: 3 days) worked out at 1.123 ± 0.0075 and the normalised cell viability (treatment time: 6 days) was determined as 1.05 ± 0.02.
For `C[N+](C)(CCOc1ccccc1)Cc1ccccc1.O=C([O-])c1cc2ccccc2cc1O` [Bephenium hydroxynaphthoate] the same measures were 1.02 ± 0.039 and 1.06 ± 0.033.
The matching figures for `NC1CCN(c2c(F)cc3c(=O)c(C(=O)O)cn(C4CC4)c3c2Cl)C1` (stereo not given) [Clinafloxacin]: 0.961 ± 0.075 and 0.894 ± 0.013.
The matching figures for `CCC1(C)CC(=O)NC1=O` (stereo not given) [Ethosuximide]: 1.02 ± 0.074 and 0.974 ± 0.042.
On to `CCc1nn(CCCN2CCN(c3cccc(Cl)c3)CC2)c(=O)n1CCOc1ccccc1` [Nefazodone HCl], for which the normalised cell viability came out at 1.02 ± 0.011 (treatment time: 3 days) and 0.989 ± 0.025 (treatment time: 6 days).
As to `OCCN1CCN(CC/C=C2/c3ccccc3Sc3ccc(Cl)cc32)CC1` [Zuclopenthixol hydrochloride], the normalised cell viability was 0.754 ± 0.024 (treatment time: 3 days) and 0.7712 ± 0.0039 (treatment time: 6 days).
The matching figures for `Nc1nc(/C(=C/CC(=O)O)C(=O)N[C@@H]2C(=O)N3C(C(=O)O)=CCS[C@H]23)cs1` [Ceftibuten]: 0.909 ± 0.12 and 0.923 ± 0.066.

Source of the values: the supplement of paper PMC6609913.
